In the BET-seq Pho4 binding data (Le et al. 2018):
Some of the results follow. Values were computed here from the reads of four pooled replicates and scatter widely.

Target: T1, Pho4 (S. cerevisiae) (UniProt P07270)
T1 sequence: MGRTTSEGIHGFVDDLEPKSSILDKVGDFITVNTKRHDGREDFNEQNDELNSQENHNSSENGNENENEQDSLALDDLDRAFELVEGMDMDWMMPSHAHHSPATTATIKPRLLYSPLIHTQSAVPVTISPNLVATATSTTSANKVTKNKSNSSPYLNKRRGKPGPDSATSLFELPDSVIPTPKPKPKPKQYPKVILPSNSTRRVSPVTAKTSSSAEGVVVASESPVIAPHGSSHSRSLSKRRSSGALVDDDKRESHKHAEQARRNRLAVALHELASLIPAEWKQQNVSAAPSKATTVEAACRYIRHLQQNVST
Test: relative binding free energy (BET-seq); higher = weaker binding
Details: reference: library average

Relative binding free energy, 0.01 kcal/mol:
CTGGTCACGTGTAGGC, AGTCGCACGTGCGGAG, GCATACACGTGGGGGA, TTGGGCACGTGCATGA, TGTTACACGTGCGTCT

Relative binding free energy, 0.19 kcal/mol:
TGCCTCACGTGTGTTT, GTACTCACGTGTTTAG

Relative binding free energy, -0.21 kcal/mol:
TGTGCCACGTGGGGTC

Relative binding free energy, 0.11 kcal/mol:
AAGGTCACGTGCACGG, TTTGTCACGTGGTTGT, TATGTCACGTGATGCT, TGGTGCACGTGCGAAA, TTGTACACGTGAGTCG

Relative binding free energy, 0 kcal/mol:
CTTTGCACGTGTTGGA, GACTGCACGTGGCGGT, GTTAACACGTGCTTTG, TTGAGCACGTGATAAG

Relative binding free energy, 0.38 kcal/mol:
GTGAACACGTGAGGGG, AGTTTCACGTGATAGA, AATTTCACGTGTGATG

Relative binding free energy, -0.1 kcal/mol:
CGTAGCACGTGTTGGA, GGTGCCACGTGTAGTA

Relative binding free energy, 0.32 kcal/mol:
GCGTTCACGTGGTGGT, TGGTTCACGTGGAGGC, GTTTGCACGTGAAGGC, GTTAGCACGTGAATTT, TGGTTCACGTGCGAGC

Relative binding free energy, 0.39 kcal/mol:
AGTTTCACGTGATGGA, TGGTTCACGTGTATCG

Relative binding free energy, 0.37 kcal/mol:
GTTTTCACGTGAGGCC

Relative binding free energy, 0.02 kcal/mol:
GGGGGCACGTGTTGGT, TGGGCCACGTGTTAGG, AATTACACGTGGTAGT, TCAGGCACGTGGATTG, TACATCACGTGGTATT, TGCAACACGTGTGGGC, TCGATCACGTGGGTTT, CGAAGCACGTGGTTGA, TCGTGCACGTGTAGTC

Relative binding free energy, -0.13 kcal/mol:
GTGAGCACGTGGTTAG, GTTAGCACGTGCGGCG, GAGGGCACGTGGTATT

Relative binding free energy, -0.2 kcal/mol:
GGAAGCACGTGGGAGT

Relative binding free energy, 0.15 kcal/mol:
TGACTCACGTGTTTAG, TAATTCACGTGTAAGT, CAAATCACGTGGGGTA, GTTGACACGTGTGATA, AATGACACGTGATTGT

Relative binding free energy, 0.08 kcal/mol:
GTCGGCACGTGTTGCG, TGCTGCACGTGACGGG, CGAGTCACGTGGTGAA, ATTTACACGTGGTTCT

Relative binding free energy, -0.05 kcal/mol:
TGAACCACGTGGTGTA, TTGTCCACGTGTATTG, TTATACACGTGCGCGT, GGCTGCACGTGGCCGG, TATTACACGTGGGTAG, TGGTACACGTGCTTGT

Relative binding free energy, -0.18 kcal/mol:
TGTGACACGTGGGCGT, CTGGCCACGTGGGGGA, CTTGGCACGTGGTAGT, TTGGCCACGTGGGCGA

Relative binding free energy, -0.02 kcal/mol:
AGTGACACGTGTAGGT, AGTCACACGTGGTTTG, TATCGCACGTGGCTGG, TATGACACGTGGGCCG, GATAGCACGTGGTAAT, ATATGCACGTGTGAGC, AGGTACACGTGGTGTT

Relative binding free energy, -0.29 kcal/mol:
TAGGGCACGTGTTGCA

Relative binding free energy, -0.06 kcal/mol:
AATCGCACGTGTTTTT, GGAGGCACGTGTTTTT, ATAGGCACGTGTCATT

Relative binding free energy, 0.04 kcal/mol:
ATTGGCACGTGTCGAG, TATGTCACGTGTACGA, TAATACACGTGTAGTT, TTTGCCACGTGTGATT

Relative binding free energy, 0.17 kcal/mol:
TTAGTCACGTGAGCGG, CGTTTCACGTGGGTGA, AAGTTCACGTGTGTTA, GTATTCACGTGGATGC, GGCTTCACGTGGGACG, GGATTCACGTGTCGTG, GTATTCACGTGCTGCT

Relative binding free energy, 0.27 kcal/mol:
GGGTTCACGTGGTGGA, GACGTCACGTGTGGTG

Relative binding free energy, 0.33 kcal/mol:
GGGTTCACGTGAAGTG, AATTTCACGTGGTTTT

Relative binding free energy, 0.12 kcal/mol:
CAGTCCACGTGTTGTT, TAGTACACGTGTGGTA, TTTATCACGTGGCCGT, TGTCACACGTGGATTT, GGGGACACGTGATTAA

Relative binding free energy, 0.28 kcal/mol:
AGTAACACGTGAGTTT, AGTTACACGTGAGCTG, GTAGACACGTGATTGT

Relative binding free energy, -0.08 kcal/mol:
AGGTGCACGTGGCTTT, AGAGTCACGTGGGTGG, ATCAGCACGTGTTTGA

Relative binding free energy, -0.03 kcal/mol:
TCGGGCACGTGATATT, ATATGCACGTGACAGG, TGTAGCACGTGTTTAT, ATTGCCACGTGGTTGA, AGGAGCACGTGAGTGA, CAAGGCACGTGTCGGT

Relative binding free energy, -0.26 kcal/mol:
ATGCGCACGTGGTCGG

Relative binding free energy, 0.03 kcal/mol:
GTTTGCACGTGCTGTT, GTGGCCACGTGGATGT, CAGGTCACGTGGCGGG, GTACACACGTGGGATT, TGGAACACGTGCGGTG

Relative binding free energy, 0.36 kcal/mol:
CGATTCACGTGTTATG, GAATTCACGTGGTTGT, TAGTTCACGTGTGCGG

Relative binding free energy, 0.18 kcal/mol:
TGTTGCACGTGATAAG, ATGTACACGTGACGGG, TTCATCACGTGTGCGG, TATGTCACGTGTCGTC, TAAATCACGTGTGGGA

Relative binding free energy, 0.26 kcal/mol:
TGGTTCACGTGGCTGT, GTGTTCACGTGGCAGT, CGAGTCACGTGAGTGT

Relative binding free energy, -0.16 kcal/mol:
TGTTCCACGTGGCGGT, AACGGCACGTGGGGAA, GAACGCACGTGTGTGT

Relative binding free energy, 0.14 kcal/mol:
AGCGTCACGTGTGTAT, GGTGTCACGTGTACGT, TAGTGCACGTGATGGC

Relative binding free energy, 0.42 kcal/mol:
GTTATCACGTGATGGA

Relative binding free energy, 0.3 kcal/mol:
TTTGACACGTGAATTG, GAAGTCACGTGAGTTT, TGTTACACGTGTGATT

Relative binding free energy, 0.2 kcal/mol:
GTTTTCACGTGGGTGT, TATCTCACGTGGTAAG, TGTGTCACGTGAGCAG, CGGTACACGTGACTGG, GGCCTCACGTGGAGTG

Relative binding free energy, -0.19 kcal/mol:
GGGGCCACGTGGGAGG, CTATGCACGTGGTGCG

Relative binding free energy, -0.07 kcal/mol:
TTTGGCACGTGGTGGA, CTTGACACGTGTTTGA, TAAGGCACGTGTTGTG

Relative binding free energy, -0.32 kcal/mol:
AAACGCACGTGGGTTG

Relative binding free energy, 0.13 kcal/mol:
TGGTTCACGTGGTGAC

Relative binding free energy, 0.4 kcal/mol:
TGGCTCACGTGATGGT

Relative binding free energy, -0.09 kcal/mol:
TCTAACACGTGGGTGG, GCGGGCACGTGCTGAG, TGATGCACGTGGTGTG, AGAAACACGTGGGGAT, ATTGGCACGTGGGTCC, AGTCACACGTGGGGTG

Relative binding free energy, 0.21 kcal/mol:
GATTACACGTGTTGGG, GGGCGCACGTGAGGGT, GTATTCACGTGGGACA, GAGTGCACGTGAAGGT

Relative binding free energy, 0.35 kcal/mol:
CTGATCACGTGTATTT, GGATTCACGTGTGGGA

Relative binding free energy, 0.29 kcal/mol:
GGGTACACGTGAGGTT, GTGTACACGTGAAGAG

Relative binding free energy, -0.11 kcal/mol:
TGGTCCACGTGGAGTA

Relative binding free energy, 0.22 kcal/mol:
GGGTTCACGTGGGAGT, GTGATCACGTGTCCGT, GTACTCACGTGGTCGG, GGCGACACGTGAGGGG

Relative binding free energy, -0.04 kcal/mol:
GTTGGCACGTGTTTCT, ACGCTCACGTGGGGTG, GGTACCACGTGCTTGG, GTACCCACGTGGTTGG, TTTGGCACGTGTACAT, CGTAACACGTGGGGGC

Relative binding free energy, 0.31 kcal/mol:
GTATTCACGTGCGAGT, TTGTTCACGTGGCTTG

Relative binding free energy, -0.01 kcal/mol:
CGTGACACGTGGTTTG, TGTAGCACGTGATATG, TTTGTCACGTGGGCTA, CAGGGCACGTGAGTAG

Relative binding free energy, -0.12 kcal/mol:
TTATCCACGTGGTGGG

Relative binding free energy, 0.23 kcal/mol:
AGGTTCACGTGGCGGG, CGGTTCACGTGAAGGT

Relative binding free energy, 0.25 kcal/mol:
GGGTTCACGTGGCTAT, CTAATCACGTGATGTG, ATAATCACGTGAGGAG, TTGTACACGTGTGTCG

Relative binding free energy, -0.17 kcal/mol:
CGAGGCACGTGGACGG, AGAGGCACGTGGAGTA

Relative binding free energy, 0.43 kcal/mol:
GTTCTCACGTGAGATT, GTCTTCACGTGGCGAT, GTTTTCACGTGACGAG

Relative binding free energy, 0.16 kcal/mol:
GGTGTCACGTGGAGAC, AGGTTCACGTGGGTGA, TCACTCACGTGTTGTT, TGCTTCACGTGGTGAG, GCGTTCACGTGGGTTG, TTGGTCACGTGATACA, TACTTCACGTGGGGGG, TTCGTCACGTGCGAGG

Relative binding free energy, -0.14 kcal/mol:
AGGTGCACGTGGGATC, CTTGGCACGTGTAGCG

Relative binding free energy, 0.09 kcal/mol:
TACATCACGTGGTGAT, GGGTCCACGTGTTGGT

Relative binding free energy, 0.51 kcal/mol:
CTTTTCACGTGAGGAG

Relative binding free energy, 0.05 kcal/mol:
ATTGCCACGTGTGGGC, AGCTGCACGTGTGCGT, GTATCCACGTGGTTTG, TAGGTCACGTGGGAAC, TTAGTCACGTGGTAGT, TACGTCACGTGGTCTG, TCGGGCACGTGATTGG, CTTAACACGTGTTTTT, TGGACCACGTGTGGGA

Relative binding free energy, -0.25 kcal/mol:
TCAGGCACGTGGTGTG

Relative binding free energy, 0.07 kcal/mol:
GGTCTCACGTGCGTGT, ATTGTCACGTGCCTGG, ATGTACACGTGTGGAA, TATGGCACGTGAGTCG

Relative binding free energy, 0.24 kcal/mol:
TGTTCCACGTGAGTGC, AGTTGCACGTGAGTTG, TTTTTCACGTGTAGTA, CGGTTCACGTGTTTAG

Relative binding free energy, 0.06 kcal/mol:
AGTTACACGTGTGCGG, AGTTCCACGTGGCTGG, GGCATCACGTGGTGAT, TGGTGCACGTGTGGGT, CGGTACACGTGTTTGA

Relative binding free energy, 0.41 kcal/mol:
GATTTCACGTGTCGAG

Relative binding free energy, 0.45 kcal/mol:
GGGTTCACGTGAACAT

Relative binding free energy, 0.1 kcal/mol:
AAGGGCACGTGACTAG, GAATACACGTGTGGGG, GCGATCACGTGCGGGT, GTAGGCACGTGAAGGC
